Results published in PMC4336329 (PLoS ONE, 2015).
The campaign covered roughly 310,000 compounds. About 2,200 (0.71%) showed an effect of 50% or more. Effects have a minus sign here. The list shows a part of the results.

Biological target: human ether-à-go-go-related gene (hERG) potassium channel (human, UniProt Q12809)
Test: primary screen, population patch clamp on CHO cells stably expressing hERG

Chain of human ether-à-go-go-related gene (hERG) potassium channel (Q12809 whole entry, looked up): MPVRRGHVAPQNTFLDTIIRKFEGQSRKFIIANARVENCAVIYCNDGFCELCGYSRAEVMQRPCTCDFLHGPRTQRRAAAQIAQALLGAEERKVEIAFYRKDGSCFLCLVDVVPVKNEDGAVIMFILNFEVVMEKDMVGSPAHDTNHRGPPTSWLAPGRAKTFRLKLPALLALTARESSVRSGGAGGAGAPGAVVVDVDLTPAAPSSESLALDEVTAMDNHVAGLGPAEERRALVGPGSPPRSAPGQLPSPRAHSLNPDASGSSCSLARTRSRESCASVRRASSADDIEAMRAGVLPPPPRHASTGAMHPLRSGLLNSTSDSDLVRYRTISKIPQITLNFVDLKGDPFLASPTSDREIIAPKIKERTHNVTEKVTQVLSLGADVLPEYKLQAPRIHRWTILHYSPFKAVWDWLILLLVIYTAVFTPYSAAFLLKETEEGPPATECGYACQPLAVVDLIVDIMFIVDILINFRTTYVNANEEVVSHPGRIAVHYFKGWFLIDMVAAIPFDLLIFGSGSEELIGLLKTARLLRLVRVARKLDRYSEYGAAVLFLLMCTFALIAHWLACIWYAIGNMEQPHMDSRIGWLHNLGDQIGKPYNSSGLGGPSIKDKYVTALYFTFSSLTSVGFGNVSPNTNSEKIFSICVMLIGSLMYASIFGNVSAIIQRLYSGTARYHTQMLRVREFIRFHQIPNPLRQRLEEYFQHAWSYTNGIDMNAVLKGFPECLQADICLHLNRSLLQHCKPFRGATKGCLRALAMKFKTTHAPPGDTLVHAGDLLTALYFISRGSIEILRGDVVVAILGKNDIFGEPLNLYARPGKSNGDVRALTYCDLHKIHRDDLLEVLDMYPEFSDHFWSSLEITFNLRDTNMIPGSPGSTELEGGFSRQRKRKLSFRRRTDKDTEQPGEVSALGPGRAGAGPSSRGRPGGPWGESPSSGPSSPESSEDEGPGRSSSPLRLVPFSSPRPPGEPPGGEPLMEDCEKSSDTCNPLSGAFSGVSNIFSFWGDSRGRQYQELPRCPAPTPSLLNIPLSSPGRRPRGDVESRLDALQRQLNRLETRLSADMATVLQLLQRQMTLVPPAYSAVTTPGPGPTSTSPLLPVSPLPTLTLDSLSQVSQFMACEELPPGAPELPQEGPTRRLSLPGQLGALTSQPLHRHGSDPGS

Row | Structure (SMILES) | hERG current change (%, negative = inhibition) at 1uM [%]
1 | CC(=O)Nc1ccc(S(=O)(=O)NCC2CCC(C(=O)N3CCN(c4ccccn4)CC3)CC2)cc1 (stereo not drawn) | 23
2 | CC(C)(C)SCCNC(=O)CN(c1ccc(F)cc1)S(=O)(=O)c1ccccc1 | 14.7
3 | Nc1nnnn1/N=C/c1ccccc1O | 15.1
4 | CC(C)c1onc(C(=O)N2CCN(c3ccc(F)cc3)CC2)c1[N+](=O)[O-] | 11.7
5 | Cc1ccc(S(=O)(=O)N(CC(=O)NCCC2=CCCCC2)Cc2ccccc2)cc1 | 2.21
6 | O=C(COC(=O)CNC(=O)c1ccccc1F)Nc1nnc(-c2ccccc2)o1 | -10.1
7 | COCCN(C(=O)CNC(=O)c1ccco1)C(C(=O)NC1CCCC1)c1ccc(F)cc1 (stereo not drawn) | 9.03
8 | COc1cccc(-c2nc(-c3ccc(NC(=O)c4ccncc4)cc3)no2)c1 | -1.38
9 | CN1/C(=C\C(=O)CSc2nnc(NCc3ccccc3)s2)C(C)(C)c2ccccc21 | -4.97
10 | O=C1c2ccccc2C(=O)C12OC2c1ccc(Cl)cc1 (stereo not drawn) | 13.4
11 | COc1ccc([C@@H](O)[C@@H](N)c2ccccc2)cc1.Cl | 10.9
12 | CC1CCN(C(=O)Cn2c(=O)oc3cc(S(=O)(=O)N4CCCCC4)ccc32)CC1 | 14.5
13 | CCCC(=O)Nc1nc2ccc(S(N)(=O)=O)cc2s1 | 3.63
14 | COc1cc(-c2cc(=O)c3c(O)c(OC)c(OC)cc3o2)cc(OC)c1O | 9.36
15 | CCOC(=O)c1sc2nc(CC(=O)OC)nc(N3CCN(c4ccc(OC)cc4)CC3)c2c1C | 12.6
16 | CCOc1ncccc1C(=O)Nc1cccc(S(=O)(=O)N2CCCCC2)c1 | 5.44
17 | Cc1ccc(S(=O)(=O)N2CCCC2CNC(=O)C(=O)NCc2ccccn2)cc1 (stereo not drawn) | 4.34
18 | COc1ccc(NC(=O)Cn2c(C)csc2=O)c(OC)c1 | 6.05
19 | Cc1ccc2c(c1)C1OCCC1C1N2C(=O)C2C(C(=O)O)C3C=CC21O3 (stereo not drawn) | 14
20 | CCOC(=O)c1c(C)n(-c2ccc(F)cc2)c2ccc(O)cc12 | 11.1
21 | COc1cc(Nc2c3c(nc4ccccc24)CCC3)cc(OC)c1OC | -19.4
22 | CCCCOc1ccc(C(C)NC(=O)CCS(=O)(=O)Cc2ccc(Cl)cc2)cc1 (stereo not drawn) | 16.7

Row | Structure (SMILES) | hERG current change (%, negative = inhibition) at 1uM [%]
23 | COc1ccccc1C1=NN(C(=O)c2ccccc2)C(c2ccc(Br)cc2)C1 (stereo not drawn) | 18.5
24 | CCN(CC)CCNC(=O)c1ccc2c(=O)n(CCc3ccccc3)c(=O)[nH]c2c1 | 7.57
25 | CC(=O)OC(COc1cccc(C)c1)Cn1cnc2ccccc21.Cl (stereo not drawn) | -5.27
26 | COc1ccc(NC(=O)CSCc2ccc([N+](=O)[O-])cc2)cc1OC | 4.12
27 | CC(=O)Nc1ccc(N2CCCC(C)C2)c([N+](=O)[O-])c1 (stereo not drawn) | 5.5
28 | Cc1ccc(Nc2nc(/N=C/NO)n[nH]2)cc1C | 11.7
29 | CC1CCN(C(=O)C(C)OC(=O)CSc2ccc([N+](=O)[O-])cc2)CC1 (stereo not drawn) | 0.731
30 | Cl.O=C(c1ccc(F)cc1F)N(Cc1ccccn1)Cc1ccco1 | 8.89
31 | Cn1c2ccc(CC(=O)O)cc2c2cc(CC(=O)O)ccc21 | 11.4
32 | CN(Cc1nccn1C)C(=O)CC1C(=O)NCCN1CC(c1ccccc1)c1ccccc1 (stereo not drawn) | 3.86
33 | CN(C)c1nc2ccccc2c(N)c1-c1ccccc1.O=C(O)C(=O)O | -39.7
34 | COc1ccccc1CC1CC(=O)N(c2ccccc2)C1=O (stereo not drawn) | 10.8
35 | COCC(=O)OCC(=O)Nc1cc(C)c(C)cc1[N+](=O)[O-] | 5.93
36 | Cc1cccn2c(=O)c3cc(C(=O)NCC4CCCO4)c(=N)n(CC4CCCO4)c3nc12 (stereo not drawn) | -84.8
37 | COc1ccc(OC(C)C(=O)NCCC2=CCCCC2)cc1 (stereo not drawn) | 11.6
38 | COC(C/C=C/[C@H](O)[C@H](C)OCc1ccccc1)OC | 12
39 | COc1cccc(C(=O)Nc2c3c(nc4c2CCC4)CCCC3)c1 | 2.65
40 | COc1ccc2[nH]c3c(c2c1)CCNC3 | 13
41 | COc1ccc(-n2c(C(C)n3nc(C)c([N+](=O)[O-])c3C)n[nH]c2=S)cc1 (stereo not drawn) | 11
42 | CCN(CC)S(=O)(=O)c1cc([N+](=O)[O-])ccc1N=Nc1c(O)[nH]c2ccccc12 | 9.04
43 | O=C(Cc1ccccc1)Nc1nc(-c2ccc(F)c(F)c2)cs1 | 17.8
44 | COc1ccc(OC)c(CN(CCCN2CCOCC2)C(=O)Nc2ccccc2)c1 | 0.0247

Row | Structure (SMILES) | hERG current change (%, negative = inhibition) at 1uM [%]
45 | CC(=O)Oc1ccc2occ(/C=N/c3cc(=O)[nH]c(=S)[nH]3)c(=O)c2c1 | 17.5
46 | CCCCN(C(=O)c1ccc2c(c1)NC(=O)CS2)c1ccccc1 | -2.71
47 | COCc1nnc(NC(=O)C2CC(=O)N(CCc3ccc(F)cc3)C2)s1 (stereo not drawn) | 17.4
48 | COc1ccc(OC)c(C(=O)c2coc3ccc(O)c(CN4CCOCC4)c23)c1 | -6.28
49 | CCCN(CC(=O)Nc1ccccc1C)C(=O)c1ccc(C(=O)c2ccccc2)cc1 | 15.5
50 | CCC1CO/C(=C(\C(Cl)=C(Cl)Cl)[N+](=O)[O-])N1Cc1ccc(Cl)nc1 (stereo not drawn) | -18.5
51 | CCN(CC)CCN1C(=O)C(=O)/C(=C(/O)c2ccccc2)C1c1ccccc1F (stereo not drawn) | 10.9
52 | Cc1ccc(C2=NN(CC(=O)NCCN(C)C)C(=O)CC2)cc1 | -3.05
53 | S=C(NC1CCCCC1)NC1CC2C=CC1C2 (stereo not drawn) | 10.8
54 | O=S(=O)(c1ccccc1)c1nc(Nc2cccc(O)c2)sc1Cl | -1.32
55 | CCCn1nnnc1SCC(=O)NCc1cccs1 | 7.16
56 | COc1cccc(CNCCc2ccccc2)c1OC.Cl | 12.3
57 | CNc1ccccc(C(=O)/C=C/c2ccccc2OC)c1=O | 9.23
58 | C=CCN1C(=O)N/C(=C/c2ccccc2OCC(=O)Nc2ccc(F)cc2)C1=O | 0.196
59 | Cc1ccc(SCCC(=O)OCC(=O)Nc2ncc(Cl)cc2Cl)cc1 | -0.748
60 | COCCN(C(=O)CCC(=O)Nc1cccnc1)C(C(=O)NC1CCCCC1)c1ccccc1 (stereo not drawn) | 2.11
61 | COC(=O)N/N=C(\C)c1ccc2ccccc2c1OC(F)F | 14.8
62 | CCN(CC)S(=O)(=O)c1ccc(C(=O)NNC(=O)C2CCN(S(=O)(=O)c3ccc(Cl)cc3)CC2)cc1 | 2.1
63 | Cc1ccccc1NS(=O)(=O)c1ccc2c(c1)NC(=O)CCS2 | 9.65
64 | CCC(C)(C)n1nnnc1CN(Cc1cc2cc(OC)ccc2[nH]c1=O)C1CCCC1 | 3.27
65 | COC(=O)c1ccc(OC(=O)CCN2C(=O)C3CCCCC3C2=O)cc1 (stereo not drawn) | 2.26
66 | O=C1NC(=O)N(Cc2ccccc2)C(=O)/C1=C/c1cnn(-c2ccccc2)c1 | 5.55

Row | Structure (SMILES) | hERG current change (%, negative = inhibition) at 1uM [%]
67 | O=C(NC1(C(F)(F)F)NC(=O)N(c2ccccc2)C1=O)c1cccs1 (stereo not drawn) | 5.42
68 | CCOC(=O)C1CCN(S(=O)(=O)c2ccc3c4c2CC(=O)N4CC(C)S3)CC1 (stereo not drawn) | 1.26
69 | c1csc(-c2nc(-c3ccc(-c4ccon4)s3)no2)c1 | 14.9
70 | COc1ccc(-c2cc3nc(-c4ccccc4)cc(N4CCC5(CC4)OCCO5)n3n2)cc1 | 12.9
71 | Cc1ccc(C(=O)Nc2ncccc2S(=O)(=O)c2ccccc2)cc1 | 8.09
72 | CC1(C(=O)Nc2cccc(C(F)(F)F)c2)CO1 (stereo not drawn) | 22.6
73 | O=[N+]([O-])c1cc(C(F)(F)F)ccc1NCCOc1ccccc1 | -0.92
74 | CCOc1ccc2nc(NC(=O)CSc3ccc(Cl)cc3)sc2c1 | 15.3
75 | Cc1ccc(NC(=O)c2ccccc2F)c(NC(=O)c2ccccc2F)c1 | 8.6
76 | CCc1cccc(NC(=S)Nc2cccc3ccccc23)c1 | 12.1
77 | COc1ccc(-c2nc(=S)c3c(n2Cc2cccnc2)CC(C)(C)OC3)cc1 | 10.7
78 | CC(=O)Nc1ccc(S(=O)(=O)N[C@@H](C)C(=O)N(C)Cc2cccs2)cc1 | 11.6
79 | O=C(NCc1ccc(Cl)cc1)c1ccccc1Oc1ccccc1 | 4.89
80 | O=C(NCC1CCCO1)c1sc2ccccc2c1Cl (stereo not drawn) | 11.3
81 | Cc1ccc2nc(N3CCN(C(=O)CCCC(=O)O)CC3)nc(-c3ccccc3)c2c1 | 0.553
82 | Cn1cc(CNC(=O)COc2ccc(Cl)cc2Cl)cn1 | 13.3
83 | O=C(OCC(=O)N1CCOCC1)c1ccc2c(c1)OCCO2 | 7.47
84 | CCOc1cc(C=O)ccc1OCCCN1C(=O)NC(C)(C)C1=O | 14
85 | CC1(C)CC(N2CCN(CCO)CC2)=CC(=S)N1 | 12.1
86 | O=C(Nc1ccc(F)cc1)c1c(O)c2c(n(Cc3ccccc3)c1=O)CCCC2 | -2.97
87 | O=C(CSc1nnc(-c2ccncc2)n1-c1ccc(F)cc1)NNC(=O)c1cccc(O)c1 | -1.06
